From PubChem BioAssay AID1345083 (National Center for Advancing Translational Sciences (NCATS), 2018)
Among all 94,000 compounds or so, about 6,200 (6.6%) were called active. Inconclusive results, whose numbers are uncertain, are shown with a selection of clear calls. Calls follow the shape of the dose curve; as a rule, active = well fitted inhibition curve with a large enough effect; inconclusive = small, poorly fitted or top-dose-only effect; inactive = flat fitted curve, though single readings scatter. A potency beside an inconclusive call is a rough fit, not a confirmed value.

assay: Cytotoxic Profiling in HEK 293 Cell Line of Diverse Libraries Using Quantitative High-Throughput Screening; details: HEK 293 viability, ATP luminescence (CellTiter-Glo), 48-72 h; activity change, negative = cytotoxicity: at 115 µM (top of the series) unless noted; series mostly up to 115 µM; also: nearly all actives have a fitted effect of over 60% in size
In short: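 Pintool-delivered compounds were incubated with HEK 293 cells (250 cells/well) at 37 degree Celsius for 48 or 72 hr. ATP-dependent luminescence (CellTiter-Glo) then reported remaining viable cells.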
% is scaled to controls: 0 for no effect and ±100 for the full control effect; potency is read from the fitted curve at half-maximal effect; tags tell the direction and shape of the fitted curve.

SMILES | Potency | activity change, negative = cytotoxicity | outcome
CCN1c2cc(C(=O)Nc3cccc(Cl)c3C)ccc2C(=O)N2CCCCCC21 (stereo not drawn) | inconclusive: 50.1 µM [inhibitor, partial curve, poor fit] |  | 
CN(C)S(=O)(=O)N1[C@@H]2CC[C@H]1CC(NC(=O)c1ccc(F)cc1)C2 (stereo partly drawn) |  | inactive: -0.593% | 
Cc1ccc(C(=O)N2CCC(Cc3nc(-c4ccccc4)no3)CC2)cn1 | inconclusive: 7.08 µM [inhibitor, full curve, poor fit] |  | 
Cc1cccc(OCC(=O)NCCn2ccn3nc(-c4ccc(C)c(C)c4)cc3c2=O)c1 | inconclusive: 44.7 µM [inhibitor, partial curve] |  | 
Cc1noc(C)c1[S+](=O)([O-])N1CC(Oc2ccc(F)c(F)c2)C1 |  | inactive: -8.54% | 
O=C(CCc1c[nH]c2ccccc12)NCC12CCCC=C1N(CC1CC1)C(=O)CC2 (stereo not drawn) | inconclusive: 89.1 µM [inhibitor, single point] |  | 
CNC(=O)CCn1ncc2cc(OC3CCc4cccc(-c5ccc(OC)cc5)c43)ccc21 (stereo not drawn) | active: 79.4 µM |  | 
O=C1NCc2ccccc2CC12CCN(Cc1ccccc1OC(F)(F)F)C2 (stereo not drawn) | inconclusive: 89.1 µM [inhibitor, single point] |  | 
Cn1cnc(S(=O)(=O)N[C@H]2CCN(C(=O)c3ccco3)[C@H](C(=O)N[C@H](Cc3ccccc3)C(N)=O)C2)c1 |  |  | inactive
COc1ccc(CN2CCc3nc(C4CC4)nc(-c4ccc(O)cc4)c3CC2)cc1 | inconclusive: 79.4 µM [inhibitor, single point] |  | 
C[C@H]1CCCN1C(=O)c1nnc(COc2ccc(F)c(F)c2)n1-c1cccnc1 | inconclusive: 5.62 µM [inhibitor, full curve, poor fit] |  | 
CN(Cc1cncs1)Cc1ccccc1C(F)(F)F |  | inactive: -14.3% [at 172 µM] | 
COC[C@H]1C[C@@H](NC(=O)c2cc(C)oc2C(F)(F)F)[C@H](O)[C@@H]1O |  | inactive: -0.359% [at 172 µM] | 
O=c1ccc(-c2cc(-c3cccc(C(F)(F)F)c3)cn3cncc23)c[nH]1 | inconclusive: 79.4 µM [inhibitor, partial curve] |  | 
CN(Cc1ccc2nonc2c1)Cc1ccccc1OCC(O)CN1CCCCC1 (stereo not drawn) | inconclusive: 56.2 µM [inhibitor, partial curve, poor fit] |  | 
O=C(NC[C@H]1Cn2cc(-c3ccccc3)nc2CO1)c1ccc2c(c1)OCO2 | inconclusive: 100 µM [inhibitor, partial curve] |  | 
COc1ccccc1Nc1ccnc(N2CCC(C(=O)NC3CCCC3)CC2)n1 | inconclusive: 20 µM [inhibitor, full curve, poor fit] |  | 
O=C(NCCc1ccc(Cl)cc1)c1cc(-c2cccc(C(F)(F)F)c2)c2nncn2n1 | inconclusive: 44.7 µM [inhibitor, partial curve] |  | 
Cn1ccc2c(C(=O)NCC3CCOCC3)nc(-c3cccc(N4CCOCC4)c3)cc21 | inconclusive: 100 µM [inhibitor, partial curve, poor fit] |  | 
O=C(NCc1cccc(Cl)c1)C1CN(c2ccc(F)cc2)C(=O)N1 (stereo not drawn) |  | inactive: 3.74% | 
O=C(Cc1ccc(F)cc1)Nc1cc(-c2ccncc2)nn1-c1ccccc1 | inconclusive: 79.4 µM [inhibitor, partial curve, poor fit] |  | 
COc1ccc(Nc2cnc3ccc(-c4ccccc4)nn23)cn1 | active: 44.7 µM |  | 
O=C(NC1CCCC1)c1ccc(CN2C(=O)NC3(CCS(=O)(=O)CC3)C2=O)cc1 |  | inactive: -0.686% | 

SMILES | Potency | activity change, negative = cytotoxicity | outcome
CCOCCOC1CCN(C(=O)Nc2ccc(C(=O)OC)cc2)CC1 |  | inactive: -15% | 
COc1ccccc1-c1ccc2ncc(Nc3ccnc(N4CCOCC4)c3)n2n1 | inconclusive: 100 µM [inhibitor, partial curve] |  | 
O=C(NC1CCc2nnc(C3CC3)n2CC1)c1cc(C2CC2)[nH]n1 (stereo not drawn) |  |  | inactive
COCCOC1CCOC2(CCN(C(=O)Cc3cccc(C)c3)CC2)C1 (stereo not drawn) |  | inactive: -6.51% | 
CCOC(=O)C1CCN(C(=O)Cc2cccn2-c2cccc(Cl)c2)CC1 | inconclusive: 89.1 µM [inhibitor, single point] |  | 
O=C(Nc1cccc(C(F)(F)F)c1)N[C@H]1CO[C@H]2[C@@H]1OC[C@@H]2Nc1nccc(-c2ccc(-c3ccccc3)cc2)n1 | active: 35.5 µM |  | 
CN(C)c1ccc(-c2nnnn2[C@H]2CO[C@H]3[C@@H]2OC[C@H]3OC(=O)Nc2cccc(C#N)c2)cc1 | inconclusive: 50.1 µM [inhibitor, partial curve, poor fit] |  | 
O=C(C1CCCN([S+](=O)([O-])c2cccc(C(F)(F)F)c2)C1)N1CCCC(c2nc3ccncc3[nH]2)C1 (stereo not drawn) | active: 44.7 µM |  | 
COc1ccccc1-c1cc(C(=O)Nc2ccc(F)cc2)c2cnn(C)c2n1 | inconclusive: 56.2 µM [inhibitor, partial curve, poor fit] |  | 
O=C(Nc1ccc(Cl)cc1)N1CCCC(C(=O)N2CCC(c3nc4ccncc4[nH]3)C2)C1 (stereo not drawn) |  |  | inactive
CCCS(=O)(=O)N1CCC(N2C(=O)C3(CCCCC3)C2c2ccncc2)CC1 (stereo not drawn) |  | inactive: -26.2% | 
CCC1=C(C(=O)OC)C(c2ccc(C)cc2C)N2C(CC(=O)NCC3CCCO3)=CSC2=N1 (stereo not drawn) | inconclusive: 79.4 µM [inhibitor, partial curve, poor fit] |  | 
O=C(NCc1cccc(C(F)(F)F)c1)C1CCc2nnc(CN[S+](=O)([O-])c3ccccc3Cl)n21 (stereo not drawn) |  | inactive: -0.544% | 
COc1ccccc1Nc1ccnc(N2CCCC2C(=O)NCc2ccc(F)cc2)n1 (stereo not drawn) | inconclusive: 89.1 µM [inhibitor, partial curve] |  | 
O=C(C1CN(c2ccc(F)cc2)C(=O)N1)N1CCN(Cc2ccccc2)CC1 (stereo not drawn) | active: 25.1 µM |  | 
CC(C)c1ccc(CNC(=O)c2noc(-c3ccc4c(c3)OCO4)n2)cc1 | inconclusive: 15.8 µM [inhibitor, full curve, poor fit] |  | 
CCOC(=O)C1CCN(C(=O)c2ccc3nnc(C(C)(C)C)n3c2)CC1 |  | inactive: -22% | 
COCc1nc(CCNC(=O)c2c3c(nc4ccccc24)CCCC3)no1 | inconclusive: 89.1 µM [inhibitor, single point] |  | 
COCCOC1CCN(C(=O)c2ccccc2)CC1 |  | inactive: 12.9% | 
COCCn1c(=O)c2c(n1Cc1ccccc1)CN(Cc1cncc(OC)c1)CC2 |  |  | inactive [at 172 µM]
O=C(NCC(F)(F)F)C1CN(c2ccc(F)cc2)C(=O)N1 (stereo not drawn) |  | inactive: -3.14% [at 172 µM] | 
Cn1nccc1C(=O)N1CCC2(CC1)CC(N(C(=O)c1ccccc1)C1CC1)CCO2 (stereo not drawn) | inconclusive: 79.4 µM [inhibitor, single point] |  | 
CC(C)NC(=O)CCCN1C(=O)COc2ccc(C(=O)COc3ccccc3Cl)cc21 | inconclusive: 50.1 µM [inhibitor, partial curve, poor fit] |  | 

SMILES | Potency | activity change, negative = cytotoxicity | outcome
Cc1nc([C@@H]2CN(C(=O)C3CC3)C[C@H]2C(N)=O)n[nH]1 |  | inactive: -1.56% | 
Cc1ccc(-c2c(C(=O)Nc3ccc(F)cc3)nc3sccn23)cc1 | inconclusive: 35.5 µM [inhibitor, full curve] |  | 
COCCN1CC(CO)C2(CCN(Cc3ccc(Cl)cc3F)CC2)C1 (stereo not drawn) | inconclusive: 56.2 µM [inhibitor, partial curve, poor fit] |  | 
C[C@H]1CCCN1C(=O)c1nnc(COc2ccc(C#N)cc2)n1-c1ccccc1 |  | inactive: -27% [at 172 µM] | 
Cc1ccc2c(n1)N(C)[C@H](CO)CCN(Cc1cccnc1)C2 |  | inactive: 2.17% [at 172 µM] | 
O=C1COc2ccc(-c3ccc(F)c(Cl)c3)nc2CN1Cc1nc2ccccc2s1 | active: 50.1 µM |  | 
COC[C@H]1CCCN1Cc1nc(C2(O)CCN(Cc3ccccc3C(F)(F)F)CC2)cs1 | inconclusive: 89.1 µM [inhibitor, partial curve, poor fit] |  | 
COc1ccc(CCCN2C(=O)O[C@@H]3CN(c4cc(OC)ncn4)C[C@@H]32)cc1 | inconclusive: 12.6 µM [inhibitor, full curve, poor fit] |  | 
Cc1cccc(OCCc2noc(C3CCCN(C(=O)C(C)C)C3)n2)c1 (stereo not drawn) | inconclusive: 89.1 µM [inhibitor, single point] |  | 
COc1ccc2[nH]c3c(c2c1)CCNC31CCN(C(=O)c2cc(C)nn2C)CC1 | inconclusive: 50.1 µM [inhibitor, partial curve, poor fit] |  | 
O=C(CCC1CCN(C(=O)c2ccccc2F)CC1)Nc1ccccc1 | inconclusive: 50.1 µM [inhibitor, partial curve, poor fit] |  | 
CN(Cc1cccc(F)c1)C1CCOc2ccccc21 (stereo not drawn) |  | inactive: -12.6% [at 172 µM] | 
Cc1ncsc1CN1C(=O)CO[C@H](c2ccc(NC(=O)CC(C)C)cc2)[C@H]1CO |  | inactive: -1.68% [at 172 µM] | 
O=C(Cc1cccc(Cl)c1)NC1CCN(Cc2ccc(-c3ccsc3)cc2)C1 (stereo not drawn) | inconclusive: 15.8 µM [inhibitor, full curve, poor fit] |  | 
Cc1cnc(C2CCC2)n1CCNC(=O)c1nccn1C |  | inactive: 5.32% | 
Cc1cccc(C)c1-c1nc(C(=O)NC(C)C)n2ccccc12 | inconclusive: 126 µM [inhibitor, partial curve, poor fit] |  | 
O=C(NCC(F)F)C1CCCN1C(=O)c1cccc(-c2cccnc2)c1 (stereo not drawn) |  | inactive: -5.67% | 
CSCCNC(=O)c1cc(Br)cn2ccnc12 | inactive |  | 
CCN(C1CCOCC1)C1CN(S(C)(=O)=O)C1 | inconclusive: 100 µM [inhibitor, partial curve, poor fit] |  | 
O=C(C1CCCC1)N1CCC2(CC1)NC(=O)N(c1ccccc1)N2 | inconclusive: 22.4 µM [inhibitor, full curve] |  | 
O=C1CCn2nnc(CNc3cccc(C(F)(F)F)c3)c2CN1Cc1ccccc1 | inconclusive: 79.4 µM [inhibitor, partial curve] |  | 
Cc1cccc(OCC(=O)N2CCC[C@H]2c2nc(-c3ccc(F)cc3)n[nH]2)c1 | inconclusive: 79.4 µM [inhibitor, single point] |  | 
